Earlier results as cited in patent US20240342171A1, “DISCOVERY OF A F-ATP SYNTHASE INHIBITOR FOR THE TREATMENT OF MYCOBACTERIUM ABSCESSUS DISEASES” (priority 2021, published 2024).

Tested on: M. abscessus

In the case of `COc1nc2ccc(Br)cc2cc1[C@@H](c1ccccc1)[C@@](O)(CCN(C)C)c1cccc2ccccc12` [BDQ, bedaquiline], the “higher potency against M. tuberculosis than M. abscessus” value is listed as 100 ×.

For `COc1cc([C@](O)(CCN(C)C)[C@@H](c2cc3cc(Br)ccc3nc2OC)c2cc(OC)nc(OC)c2OC)cc(OC)n1` [TBAJ876], the “higher potency against M. tuberculosis than M. abscessus” value is listed as 100 ×.
